Patent publication US20240131045A1, “METHODS FOR TREATMENT OF VIRAL INFECTIONS” (priority 2022, published 2024)

Tested on: SARS-CoV-2
Assay: Efficacy in SARS-CoV-2-infected African green monkeys (AGM)
Conditions: oral 60 mg/kg QD or 120 mg/kg QD, as early as 2 days of oral dosing

CC(C)C(=O)OC[C@H]1O[C@@](C#N)(c2ccc3c(N)ncnn23)[C@H](OC(=O)C(C)C)[C@@H]1OC(=O)C(C)C [Compound 10]
SARS-CoV-2 levels in the bronchioalveolar lavage fluid: significantly reduced
